# Measurements reported in PubChem BioAssay AID488969 (Vanderbilt High Throughput Screening Facility, 2010).
# In all, about 110,000 compounds were measured (“z-score”: median about -0.1, highest 2% from about 2 on). This is one part of the list. Activity calls are given as the source filed them.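 The calls were made as follows: active = z-score in the third read window above 3 or below -3; inactive = the rest.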
# Molecular target: Metabotropic glutamate receptor 8 (Rattus norvegicus) (UniProt P70579)
# UniProt P70579, sequence (P70579 whole entry, looked up): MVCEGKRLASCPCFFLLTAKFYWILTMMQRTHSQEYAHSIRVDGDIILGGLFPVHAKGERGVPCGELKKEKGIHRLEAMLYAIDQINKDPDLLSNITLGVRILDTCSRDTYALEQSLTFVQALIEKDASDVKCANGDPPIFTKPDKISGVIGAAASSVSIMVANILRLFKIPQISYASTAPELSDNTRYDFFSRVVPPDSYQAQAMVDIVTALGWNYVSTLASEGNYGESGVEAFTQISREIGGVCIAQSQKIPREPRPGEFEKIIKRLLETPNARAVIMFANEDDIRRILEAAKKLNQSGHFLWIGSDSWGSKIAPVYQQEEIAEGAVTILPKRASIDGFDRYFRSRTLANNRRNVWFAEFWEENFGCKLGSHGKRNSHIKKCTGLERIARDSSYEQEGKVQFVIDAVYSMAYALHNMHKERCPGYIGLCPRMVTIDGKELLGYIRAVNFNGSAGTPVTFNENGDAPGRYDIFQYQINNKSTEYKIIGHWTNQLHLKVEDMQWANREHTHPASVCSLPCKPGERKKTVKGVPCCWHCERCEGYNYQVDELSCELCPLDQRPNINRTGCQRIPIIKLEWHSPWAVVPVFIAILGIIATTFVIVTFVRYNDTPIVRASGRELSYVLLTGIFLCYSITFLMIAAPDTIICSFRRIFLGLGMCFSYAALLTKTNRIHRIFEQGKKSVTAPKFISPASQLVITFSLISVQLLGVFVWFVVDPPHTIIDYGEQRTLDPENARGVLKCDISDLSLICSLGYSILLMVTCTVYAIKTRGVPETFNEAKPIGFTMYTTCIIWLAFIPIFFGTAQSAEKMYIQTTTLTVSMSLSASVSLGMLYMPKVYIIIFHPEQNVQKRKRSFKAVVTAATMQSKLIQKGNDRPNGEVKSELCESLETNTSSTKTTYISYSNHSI
# Assay: mGluR8 Gi/Go-coupled signaling modulation – cell-based, rat, thallium flux, HTS, primary screen (AID 488969)
# Settings: HEK293 rat mGluR8, GIRK (G protein-gated inwardly rectifying potassium channel) thallium flux, FluoZin2; at 10 µM; stronger effect = higher value; submaximal glutamate (EC20) added with thallium
row,SMILES,z-score
1,COc1ccccc1/C=N/NC(=O)CC(=O)NCc1cccnc1,-0.2
2,O=C(COC(=O)c1cc([N+](=O)[O-])ccc1NCCO)c1ccccc1,-0.718
3,CC(=O)c1ccc(NC(=O)c2cccs2)cc1,-0.157
4,CCOCCCNC(=O)CNC(=S)N(Cc1ccccc1F)C1CCCCC1,0.277
5,Cc1ccc(C)c(NC(=S)NNC(=O)c2cc3c(s2)CCC(C)C3)c1 (stereo unspecified),active: 10.3
6,COc1cccc2c3c(c(C)nc12)CC(C)O3 (stereo unspecified),0.179
7,COc1ccc(OC)c(NC(=O)C2CCN(S(=O)(=O)c3cccs3)CC2)c1,0.701
8,CC(C)CN(C(=O)COC(=O)Cc1c[nH]c2ccccc12)C1CCS(=O)(=O)C1 (stereo unspecified),0.133
9,CC1CCc2sc(C(=O)OC(C)C(=O)Nc3ncc(Cl)cc3Cl)cc2C1 (stereo unspecified),-0.0769
10,Cn1ncc(C#N)c1NC(=O)c1cc(-c2ccccc2Cl)on1,0.559
11,COC(=O)C1C(=O)NCC1c1ccc(OC)cc1 (stereo unspecified),0.0171
12,O=C(c1ccc([N+](=O)[O-])cc1)n1nc(-c2ccccc2)nc1NCc1ccc(F)cc1,-0.327
13,Cc1cccnc1NC(=O)c1ccc([N+](=O)[O-])o1,1.74
14,COCCN(C(=O)Nc1ccccc1)c1ccccc1,-0.157
15,CCCC1=[N+](CC(=O)c2ccccc2)CCn2c(C)ccc21,0.0619
16,Cc1onc(-c2ccccc2Cl)c1C(=O)NC1CCS(=O)(=O)C1 (stereo unspecified),-0.0472
17,Cc1ccc2c(c1)[nH]c1c(=O)n(CCC3=CCCCC3)cnc12,0.117
18,COc1cccc(C(=O)Nc2nc3ccccc3[nH]2)c1,0.00886
19,C/C(=N\OCC(=O)Nn1c(=O)[nH]c2ccccc2c1=O)c1ccccc1,-0.434

row,SMILES,z-score
1,COCCNC(=O)CCCn1c(=O)c2ccccc2n(CC(=O)NCCC2=CCCCC2)c1=O,-0.376
2,CC(=O)Nc1ccc(S(=O)(=O)NCc2ccc3[nH]c(C)cc3c2)cc1,0.331
3,O=C(CNC(=O)c1ccccc1C(=O)O)c1ccccc1,0.0232
4,COc1cc(/C=C(/NC(=O)c2ccccc2Cl)C(=O)O)cc(OC)c1OC,1.75
5,CCOc1ccc(C2CC(=O)NC(SCC(=O)OC)=C2C#N)cc1 (stereo unspecified),-0.185
6,N#Cc1c(NC(=O)CCC(=O)O)sc2c1CCCC2,-1.14
7,Cc1nc(Oc2ccc(Cl)cc2)c2oc3ccccc3c2n1,0.203
8,OC(COCc1cccs1)CN1CCN(c2ccccn2)CC1 (stereo unspecified),-0.291
9,COc1c(N2CCN(C(=S)Nc3ccccc3)C(C)C2)c(F)cc2c(=O)c(C(=O)O)cn(C3CC3)c12 (stereo unspecified),-0.385
10,C=C1c2cc(OC)ccc2NC(=O)N1CC,-0.179
11,Cc1ccc(SCCC(=O)NCc2ccco2)cc1,-0.372
12,CN(C(=O)c1c(Cl)nc2sccn12)C1CCCCC1,0.283
13,O=C1C2C(c3ccccc3)(C(=O)N1c1ccc(Cl)cc1)C2(c1ccccc1)c1ccccc1 (stereo unspecified),0.266
14,Cc1ccc(-n2nc(C)c3c(=O)[nH]c(C(F)(F)F)nc32)cc1,-0.36
15,CCn1nnc(NC(=O)c2cc3ccccc3o2)n1,-0.12
16,O=C(c1cccc(-c2nnc(-c3ccccc3)o2)c1)N1CCCCC1,-0.346
17,CC1(c2ccccc2)NC(=O)N(CC(=O)NCCC2=CCCCC2)C1=O (stereo unspecified),-0.118
18,CCCNC(=O)COc1cccc(C(=O)NCc2ccccc2)c1,-0.267
19,O=C(OCC(=O)N1CCN(c2ccccc2)CC1)c1ccccn1,-0.0775

row,SMILES,z-score
1,Cc1ccc(Sc2ncccc2C(=O)O)cc1,-0.245
2,Cc1cc(C)c2nc(NC(=O)c3ccc4c(=O)n5c(nc4c3)CCCCC5)sc2c1,-0.00607
3,Cc1cc(NS(=O)(=O)c2ccc(NC(=O)C(C)N3C(=O)c4ccccc4C3=O)cc2)nc(C)n1 (stereo unspecified),0.345
4,O=C1c2ccccc2C(=O)N1CC(O)CNc1ccc(Br)cc1 (stereo unspecified),-0.177
5,CCNc1oc(COc2cccc(C)c2)nc1C#N,0.116
6,COCC(C)n1c(-c2ccc3c(c2)NC(=O)CO3)csc1=Nc1ccc(OC(F)F)cc1 (stereo unspecified),0.0435
7,COc1ccc(OC)c2sc(N3CCN(c4ccccc4)CC3)nc12,-0.015
8,COC(=O)c1ccccc1NC(=O)CC(NCc1ccccc1)C(=O)O (stereo unspecified),-0.65
9,O=C(CCN1CCCCC1)Nc1ccc(Br)cc1,0.244
10,COc1cc2cc(/C=C/C(=O)c3ccco3)c(Cl)nc2cc1OC,0.102
11,C=CCNC(=O)C1CCN(S(=O)(=O)CC)CC1,-0.0645
12,O=C1c2ccccc2NC2(CCCCC2)N1c1ccc(O)cc1,-0.127
13,Cc1ccc(NC(=O)CCC(=O)N/N=C/c2ccco2)c(C)c1,-1.12
14,COC(=O)c1ccccc1NC(=S)NC(=O)COc1ccccc1,active: 7.01
15,COc1cc(OC)cc(C(=O)NCC(=O)N2CCC(C)CC2)c1,1.29
16,O=C(Cc1csc(N2CCOCC2)n1)N/N=C/c1cccc(O)c1,1.07
17,Nc1nn(-c2ccccc2)c(N)c1N=Nc1ccccc1,-0.213
18,CS(=O)(=O)N1CCN(c2ccccc2NC(=O)c2ccc(-c3ccc(Cl)cc3Cl)o2)CC1,-0.0974
